From patent publication US20130064812A1, “COMBINATION THERAPIES FOR HEMATOLOGIC MALIGNANCIES” (Gilead Calistoga LLC, priority 2011, published 2013)

Legend:
LB cells = test: Subcutaneous LB human MM xenograft in SCID mice; format: in vivo; details: for MM tumor growth versus control mice: 10 mg/kg (P<0.05) or 30 mg/kg (P<0.01) orally twice a day; for mean Overall Survival (OS): control 15 days
INA-6 cells = test: SCID-hu model, INA-6 cells in human bone chip (serum shuIL-6R); format: in vivo, mice; details: 10 or 30 mg/kg daily
[1] = tested on: CLL cells with StromaNKTert; test: Viability / apoptosis of stroma-exposed CLL cells (Annexin V/PI); format: cell-based, human; details: 24 hours
CLL cells = test: BH3 profiling (mitochondrial depolarization) of CLL cells; format: cell-based, human; details: stroma-exposed; p=0.046 and p=0.047
[2] = tested on: CLL cells co-cultured with MSCs; test: CLL cells co-cultured with marrow stromal cells (MSC), DiOC6/PI viability; details: 72 hours, co-culture with MSCs, 9 patient samples, mean (±SEM)
[3] = tested on: relapsed or refractory B-cell malignancies (NHL, CLL); test: Clinical study, combination with rituximab or bendamustine, 12 patients (Example 38); details: compound 100 mg BID
[4] = tested on: CD19+ cells from CLL patients; test: mRNA expression in CD19+ CLL cells (RT-PCR); format: cell-based, human; details: 0.5 μM lenalidomide and/or 10 μM compound, 48 hours
[5] = tested on: AKT (ser473), GSK3β (ser9); test: AKT and GSK3β phosphorylation in CD19+ CLL cells with lenalidomide (immunoblot); details: 48 hours
CIIbeta = CIIbeta (Homo sapiens, UniProt O00750); test: InvitroGen Adapta kinase assay, CIIbeta; format: biochemical; details: Class II PI3K
hVPS34 = hVPS34 (Homo sapiens, UniProt Q8NEB9); details: read-out: hVPS34 IC50; Class III PI3K; InvitroGen Adapta assay
Sequence of hVPS34 (Q8NEB9 whole entry): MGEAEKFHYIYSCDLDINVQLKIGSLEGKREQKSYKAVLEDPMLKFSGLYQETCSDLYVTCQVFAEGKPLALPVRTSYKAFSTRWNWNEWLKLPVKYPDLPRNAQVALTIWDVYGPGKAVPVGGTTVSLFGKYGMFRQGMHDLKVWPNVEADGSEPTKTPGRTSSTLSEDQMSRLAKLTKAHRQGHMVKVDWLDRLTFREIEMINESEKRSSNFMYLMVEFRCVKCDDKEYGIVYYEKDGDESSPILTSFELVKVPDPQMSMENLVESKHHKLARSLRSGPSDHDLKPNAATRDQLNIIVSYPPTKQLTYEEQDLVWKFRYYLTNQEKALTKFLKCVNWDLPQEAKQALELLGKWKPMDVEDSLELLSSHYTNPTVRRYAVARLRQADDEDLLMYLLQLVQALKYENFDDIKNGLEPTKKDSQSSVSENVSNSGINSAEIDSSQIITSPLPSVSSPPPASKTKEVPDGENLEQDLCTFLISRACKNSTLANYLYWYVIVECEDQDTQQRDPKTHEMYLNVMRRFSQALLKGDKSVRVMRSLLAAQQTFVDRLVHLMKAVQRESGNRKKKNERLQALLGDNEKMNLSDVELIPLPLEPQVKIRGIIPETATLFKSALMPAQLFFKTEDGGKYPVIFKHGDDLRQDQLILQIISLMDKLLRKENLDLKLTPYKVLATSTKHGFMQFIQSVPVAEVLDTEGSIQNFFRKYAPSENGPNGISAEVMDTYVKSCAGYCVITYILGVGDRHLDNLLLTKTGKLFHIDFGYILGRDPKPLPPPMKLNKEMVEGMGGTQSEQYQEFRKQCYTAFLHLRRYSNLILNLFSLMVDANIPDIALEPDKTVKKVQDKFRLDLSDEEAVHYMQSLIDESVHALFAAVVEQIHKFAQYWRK

Sequence of CIIbeta (O00750 whole entry): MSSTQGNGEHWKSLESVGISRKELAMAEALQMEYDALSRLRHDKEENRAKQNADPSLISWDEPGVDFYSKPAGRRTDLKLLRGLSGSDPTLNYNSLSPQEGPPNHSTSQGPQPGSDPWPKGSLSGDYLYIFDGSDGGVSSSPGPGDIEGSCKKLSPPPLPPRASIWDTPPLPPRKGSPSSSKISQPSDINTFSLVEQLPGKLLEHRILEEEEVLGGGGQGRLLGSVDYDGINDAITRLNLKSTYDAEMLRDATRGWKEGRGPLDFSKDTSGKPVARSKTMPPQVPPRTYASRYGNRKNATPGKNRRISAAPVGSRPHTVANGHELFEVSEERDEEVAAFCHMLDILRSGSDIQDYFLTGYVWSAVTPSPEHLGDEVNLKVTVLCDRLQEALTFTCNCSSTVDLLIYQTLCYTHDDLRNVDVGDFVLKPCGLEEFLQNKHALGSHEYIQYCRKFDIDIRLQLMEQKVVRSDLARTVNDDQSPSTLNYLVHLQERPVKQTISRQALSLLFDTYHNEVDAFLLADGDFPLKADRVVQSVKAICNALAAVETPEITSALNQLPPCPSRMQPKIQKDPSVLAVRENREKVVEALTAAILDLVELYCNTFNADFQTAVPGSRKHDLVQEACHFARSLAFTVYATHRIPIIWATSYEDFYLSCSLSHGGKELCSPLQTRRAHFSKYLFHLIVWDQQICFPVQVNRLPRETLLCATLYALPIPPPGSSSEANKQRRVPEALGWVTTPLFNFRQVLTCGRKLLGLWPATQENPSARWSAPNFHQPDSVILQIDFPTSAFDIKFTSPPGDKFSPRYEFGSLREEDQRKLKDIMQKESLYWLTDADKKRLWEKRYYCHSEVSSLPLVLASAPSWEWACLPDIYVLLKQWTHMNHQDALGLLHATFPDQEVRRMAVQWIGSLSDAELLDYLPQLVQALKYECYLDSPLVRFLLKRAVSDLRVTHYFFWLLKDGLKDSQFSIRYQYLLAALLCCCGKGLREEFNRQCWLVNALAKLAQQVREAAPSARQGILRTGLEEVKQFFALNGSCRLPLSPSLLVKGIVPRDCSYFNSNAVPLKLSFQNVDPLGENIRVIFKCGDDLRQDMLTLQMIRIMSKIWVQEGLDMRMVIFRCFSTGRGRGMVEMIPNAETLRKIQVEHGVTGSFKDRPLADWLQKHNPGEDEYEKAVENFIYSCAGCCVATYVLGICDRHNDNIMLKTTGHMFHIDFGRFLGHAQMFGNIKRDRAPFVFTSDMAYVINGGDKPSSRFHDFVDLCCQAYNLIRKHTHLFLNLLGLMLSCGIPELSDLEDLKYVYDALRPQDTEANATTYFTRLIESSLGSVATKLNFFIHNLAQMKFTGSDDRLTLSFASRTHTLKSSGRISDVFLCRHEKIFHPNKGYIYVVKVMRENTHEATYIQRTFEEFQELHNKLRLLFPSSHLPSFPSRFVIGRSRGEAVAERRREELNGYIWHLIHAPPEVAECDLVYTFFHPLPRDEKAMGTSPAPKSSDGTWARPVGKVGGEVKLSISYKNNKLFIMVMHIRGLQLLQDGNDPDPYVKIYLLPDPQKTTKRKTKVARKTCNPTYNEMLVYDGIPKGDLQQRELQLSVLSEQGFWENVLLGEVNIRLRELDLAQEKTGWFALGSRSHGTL

CC(Nc1ncnc2[nH]cnc12)c1nc2ccc(F)cc2c(=O)n1-c1ccccc1 (centres unmarked) [Compound II, 2-(1-(9H-purin-6-ylamino)ethyl)-6-fluoro-3-phenylquinazolin-4(3H)-one]
MM tumor growth versus control mice (LB cells): significantly reduced MM tumor growth
MM tumor growth versus control mice (LB cells; listed as compound II): strong In vivo activity on the human xenograft tumor
mean Overall Survival (OS) (LB cells; 10 mg/kg, 95% CI 15-34 days): 23 days
p-Akt and p-PDK-1 in tumor tissue (LB cells; 30 mg/kg): significantly inhibited p-Akt and p-PDK-1
mean Overall Survival (OS) (LB cells; 30 mg/kg, 95% CI 27-49 days): 32 days
CD31 positive cells and microvessel density (LB cells; 30 mg/kg, p<0.01): significantly decreased
body weight (LB cells; mouse, in vivo): did not affect body weight
tumor growth (serum shuIL-6R) (INA-6 cells): significantly inhibited tumor growth compared with vehicle control

CN(C)CC[C@H](CSc1ccccc1)Nc1ccc(S(=O)(=O)NC(=O)c2ccc(N3CCN(Cc4ccccc4-c4ccc(Cl)cc4)CC3)cc2)cc1[N+](=O)[O-] [ABT-737, reference compound]
stroma-mediated resistance (CLL cell viability) ([1]; two patients, ABT-737 100 nM, compound I 10 μM): profound stroma-mediated resistance
ABT-737 concentration overcoming resistance in the presence of StromaNKTert ([1]; with or without compound I): ≥ 10 nM
mitochondrial depolarization in CLL cells treated with compound I (CLL cells): induced significantly more mitochondrial depolarization

Cn1c(CCCC(=O)O)nc2cc(N(CCCl)CCCl)ccc21 [bendamustine, reference compound]
CLL cell viability relative to untreated controls [2]: 60%
safety and tolerability [3]: dose reduction of bendamustine due to hiccups

Nc1cccc2c1CN(C1CCC(=O)NC1=O)C2=O (centres unmarked) [lenalidomide]
VEGF transcription ([4]; N=13): increased transcriptional levels of VEGF in a subset (8 of 13) of patients
b-FGF transcription ([4]; N=15): increased transcriptional up-regulation of b-FGF in all patients
AKT activation / phosphorylation (ser473) with lenalidomide ([5]; 0.5 μM lenalidomide and/or 1 or 10 μM compound): up-regulates CD154 on CLL cells by activation of AKT
GSK3β phosphorylation (ser9) ([5]; 0.5 μM lenalidomide and/or 1 or 10 μM compound, N=4): increase in phosphorylation of GSK3β
phosphorylation of AKT when PI3K-δ knocked down ([5]; siRNA to PI3K-δ, 0.5 μM lenalidomide, N=3): unable to induce phosphorylation of AKT

Cn1c(=O)n(-c2ccc(C(C)(C)C#N)cc2)c2c3cc(-c4cnc5ccccc5c4)ccc3ncc21 [NVP-BEZ-235, reference compound]
IC50 (CIIbeta): 3 nM
IC50 (hVPS34): 6 nM
